# According to PMC6212790:
# Some of the results follow. At the low end of the ranking, values are background and their order means little.
# Target: T1, GST-Rok (full length) (UniProt O34857)
# T1 sequence: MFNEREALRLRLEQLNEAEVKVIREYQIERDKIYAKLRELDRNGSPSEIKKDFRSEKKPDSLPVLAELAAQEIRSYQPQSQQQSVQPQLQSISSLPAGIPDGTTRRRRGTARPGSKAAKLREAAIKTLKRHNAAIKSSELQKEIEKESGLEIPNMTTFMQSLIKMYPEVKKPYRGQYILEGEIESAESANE
# Test: protein binding microarray;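 also: rank score from −0.5 (least bound) to 0.5 (best bound)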
# Settings: Rok is a gene silencer of Bacillus subtilis; high values mean tight binding; most listed sequences are background and not binding sites; double strand, one strand shown
row,Sequence,binding signal
1,AAGCCGGA,-0.186 E-score
2,GCGAGGGA,-0.365 E-score
3,ACCGTAAA,0.118 E-score
4,GGCTCAAC,-0.242 E-score
5,GACCACGA,-0.147 E-score
6,CACTCAAG,-0.0729 E-score
7,GCAACGGC,-0.254 E-score
8,CCGGACCC,-0.282 E-score
9,ACACCATG,0.138 E-score
10,ATGTGATC,0.0995 E-score
11,CACCGATC,-0.0461 E-score
12,CCAGTAGC,0.286 E-score
13,AAGTTTGA,-0.0342 E-score
14,GGAAGAAC,-0.151 E-score
15,CTCGTGGA,-0.327 E-score
16,TAGTACCA,0.166 E-score
17,CAGGGAGC,-0.205 E-score
18,CACGACCG,-0.0612 E-score
19,CCATAACG,0.0703 E-score
20,CAGATCCC,-0.178 E-score
21,AAATGCCG,0.135 E-score
22,AATGAACG,-0.0464 E-score
23,ATAAGGTA,0.166 E-score
24,AGTGCGGC,-0.198 E-score
25,CCATATCC,-0.0185 E-score

row,Sequence,binding signal
1,GTCGGTGA,-0.0245 E-score
2,CAGGCTAA,-0.122 E-score
3,CGCAGTGA,-0.145 E-score
4,CTGGTCGC,-0.191 E-score
5,CCAACACG,-0.133 E-score
6,AAACACTT,-0.0627 E-score
7,GGAGACAA,-0.141 E-score
8,CACGATAG,0.202 E-score
9,GCTCCGAC,-0.214 E-score
10,CCATCCCA,-0.168 E-score
11,ACGACTTG,0.0118 E-score
12,GGTTACAC,-0.0803 E-score
13,GGGTGAAA,-0.0595 E-score
14,CCTTTTAG,0.0515 E-score
15,ACCCTCCA,-0.218 E-score
16,AACCAACC,0.0319 E-score
17,CGACACCC,-0.162 E-score
18,CCAGCAGG,-0.316 E-score
19,AAAGATAT,0.279 E-score
20,GTTACATA,0.212 E-score
21,ACCCCCCT,-0.329 E-score
22,AAAACCAC,-0.0525 E-score
23,GAGGGTCA,-0.214 E-score
24,ACTTTAGC,-0.0146 E-score
25,CAGGAGTA,0.0478 E-score

row,Sequence,binding signal
1,ACACGGCC,-0.0951 E-score
2,CTTCACCA,-0.0521 E-score
3,GAATGACA,-0.0175 E-score
4,CCCTTCCG,-0.327 E-score
5,ACCGCGAC,-0.17 E-score
6,GTACGTTA,0.172 E-score
7,ACGTAGAT,0.222 E-score
8,AAGTGCAA,-0.0282 E-score
9,CATATACC,0.259 E-score
10,AGGTCAAC,-0.126 E-score
11,CGAACCTC,-0.283 E-score
12,CGTCAGAG,-0.137 E-score
13,CATCCAGA,-0.144 E-score
14,GAATGTTA,0.193 E-score
15,GATCGTAA,0.0795 E-score
16,ATGACTTA,0.0476 E-score
17,ATGGAAGG,-0.164 E-score
18,ATTCTACA,0.42 E-score
19,AGCAGGCT,-0.201 E-score
20,TGAACGAA,-0.0172 E-score
21,AAGACGCT,-0.222 E-score
22,AAACTTGT,0.115 E-score
23,GCGTCTAA,-0.0399 E-score
24,ATGAGTTA,0.2 E-score
25,ATGTTAAC,0.306 E-score

row,Sequence,binding signal
1,CTACGGAG,-0.00543 E-score
2,CGCAGATC,-0.0229 E-score
3,ATTCACCA,0.141 E-score
4,AGCGGCAG,-0.241 E-score
5,ATAGACCG,-0.0219 E-score
6,TCAGATCA,-0.0715 E-score
7,TACCACAA,0.181 E-score
8,TAACCGCA,0.0326 E-score
9,GCGAGTAC,-0.0426 E-score
10,GGGTGCTA,-0.128 E-score
11,ACCTCCTG,-0.317 E-score
12,AGACCGCA,-0.00565 E-score
13,GTGTAGGA,0.198 E-score
14,CCAGTACG,-0.124 E-score
15,GTCAGAAC,0.172 E-score
16,GACATCCC,-0.312 E-score
17,AGCGTTGA,-0.216 E-score
18,GTATGGAA,0.0118 E-score
19,AATTCGCA,0.18 E-score
20,GCGAAAGC,-0.317 E-score
21,CACTGTGA,0.129 E-score
22,AGCTTAAG,-0.121 E-score
23,AGGCCTAG,-0.0148 E-score
24,ATCCCGAG,-0.157 E-score
25,ATACCACG,0.232 E-score

row,Sequence,binding signal
1,CCGTGGTC,-0.181 E-score
2,ACCAAAAG,-0.115 E-score
3,ACATGTCG,0.0488 E-score
4,AATCCAGT,0.114 E-score
5,ACACTTTC,0.106 E-score
6,AAAAAGCG,-0.126 E-score
7,GGGAGCCC,-0.403 E-score
8,AAGTGGCA,0.0388 E-score
9,AAGTAGTG,0.126 E-score
10,ACGGGAGC,-0.364 E-score
11,ATGTTCGA,0.105 E-score
12,CACCGGAA,0.00917 E-score
13,ATAGGTTC,0.155 E-score
14,CTGTCGTA,0.0464 E-score
15,ACCCCATC,-0.177 E-score
16,ACCTCCAA,-0.0283 E-score
17,GCGGAGCC,-0.201 E-score
18,AGGCCATA,-0.25 E-score
19,CACTAAGA,-0.0489 E-score
20,GTAAAGGA,-0.155 E-score
21,ATAAGAAG,0.0899 E-score
22,GCGATCGA,0.0346 E-score
23,CACGGTAC,0.135 E-score
24,AAAGATCG,-0.00269 E-score
25,ATACAATA,0.359 E-score

row,Sequence,binding signal
1,GAGGTAGA,0.296 E-score
2,GACACGCC,-0.111 E-score
3,CCACGAAG,-0.16 E-score
4,CAACCTCG,-0.0289 E-score
5,CGCCCACC,-0.362 E-score
6,CAGCGAAG,-0.0825 E-score
7,ACTGCACT,0.089 E-score
8,AGGATACG,0.00378 E-score
9,CATGTCTA,-0.0151 E-score
10,GTTGAGCA,-0.121 E-score
11,CGAGAGAC,-0.0317 E-score
12,AGTACACT,0.164 E-score
13,GATGCATA,0.164 E-score
14,CTTTTGGA,-0.106 E-score
15,CAATGCAA,-0.0262 E-score
16,AGTTCTCA,0.015 E-score
17,CGCAGCTA,-0.0732 E-score
18,CGGGGCAC,-0.224 E-score
19,CAACTTGC,0.141 E-score
20,CTAGTCGC,0.0265 E-score
21,GAAGTAGA,0.167 E-score
22,GAGCAACA,-0.0374 E-score
23,GGCCTATA,0.0364 E-score
24,GAGCTTCA,-0.242 E-score
25,GGAGGGCA,-0.377 E-score

row,Sequence,binding signal
1,CCGTGTGA,-0.134 E-score
2,GCGAGACC,-0.186 E-score
3,ACTTCCAC,0.0279 E-score
4,GAACAATA,0.0553 E-score
5,ATATGACG,0.182 E-score
6,CTACGCCA,0.00514 E-score
7,AAGATAGC,0.0426 E-score
8,GTAGTAAC,0.321 E-score
9,TATATCCA,0.24 E-score
10,ACGATCAG,-0.146 E-score
11,ACACAAGG,-0.226 E-score
12,GTGTCGAA,0.0353 E-score
13,ATTTAACC,0.0809 E-score
14,GCTACGTA,0.298 E-score
15,CATGGCGA,-0.0801 E-score
16,ACCTACGC,-0.112 E-score
17,CCCATTCG,-0.187 E-score
18,AAGCACTG,-0.261 E-score
19,CCCCATTA,-0.239 E-score
20,AGCTTTGA,0.079 E-score
21,CAGCTATA,0.275 E-score
22,GAATACAA,0.206 E-score
